Test results published in the CheMixHub viscosity set.
“And” between values parts separate entries of the source, which are not always exact repeats. Identical values can stand only once. ± gives the uncertainty stated by the source. Further values from the same series stand in other lists.

Test: xn = mol fraction of the nth substance listed

CCCO + O
Conditions | viscosity
308.15 K, 100 kPa, x1 = 0.629 | 1.712 ± 0.071 mPa·s
308.15 K, 100 kPa, x1 = 0.73 | 1.632 ± 0.068 mPa·s
308.15 K, 100 kPa, x1 = 0.851 | 1.577 ± 0.065 mPa·s
308.15 K, 101 kPa, x1 = 0.0738 | 1.309 ± 0.014 mPa·s
308.15 K, 101 kPa, x1 = 0.1 | 1.535 ± 0.014 mPa·s
308.15 K, 101 kPa, x1 = 0.2 | 1.887 ± 0.017 mPa·s
308.15 K, 101 kPa, x1 = 0.3 | 1.964 ± 0.017 mPa·s
308.15 K, 101 kPa, x1 = 0.3067 | 1.967 ± 0.02 mPa·s
308.15 K, 101 kPa, x1 = 0.5 | 1.857 ± 0.015 mPa·s
308.15 K, 101 kPa, x1 = 0.5764 | 1.695 ± 0.017 mPa·s
308.15 K, 101 kPa, x1 = 0.6 | 1.78 ± 0.015 mPa·s
308.15 K, 101 kPa, x1 = 0.6817 | 1.704 ± 0.017 mPa·s
308.15 K, 101 kPa, x1 = 0.7 | 1.703 ± 0.014 mPa·s
308.15 K, 101 kPa, x1 = 0.8 | 1.644 ± 0.013 mPa·s
308.15 K, 101 kPa, x1 = 0.819 | 1.622 ± 0.015 mPa·s
308.15 K, 101 kPa, x1 = 0.9 | 1.581 ± 0.011 mPa·s and 1.594 ± 0.013 mPa·s
308.15 K, 101.33 kPa, x1 = 0.03223 | 1.019 ± 0.011 mPa·s
308.15 K, 101.33 kPa, x1 = 0.06972 | 1.33 ± 0.014 mPa·s
308.15 K, 101.33 kPa, x1 = 0.1139 | 1.6 ± 0.017 mPa·s
308.15 K, 101.33 kPa, x1 = 0.1666 | 1.793 ± 0.02 mPa·s
308.15 K, 101.33 kPa, x1 = 0.4116 | 1.902 ± 0.02 mPa·s
308.15 K, 101.33 kPa, x1 = 0.5453 | 1.802 ± 0.019 mPa·s
308.15 K, 101.33 kPa, x1 = 0.7296 | 1.662 ± 0.017 mPa·s
308.15 K, 101.33 kPa, x1 = 0.8507 | 1.593 ± 0.016 mPa·s
312.95 K, 101.33 kPa, x1 = 0.0555 | 1.081 ± 0.002 mPa·s
312.95 K, 101.33 kPa, x1 = 0.1134 | 1.399 ± 0.002 mPa·s
312.95 K, 101.33 kPa, x1 = 0.1383 | 1.488 ± 0.002 mPa·s
312.95 K, 101.33 kPa, x1 = 0.1644 | 1.563 ± 0.002 mPa·s
312.95 K, 101.33 kPa, x1 = 0.1938 | 1.623 ± 0.002 mPa·s
312.95 K, 101.33 kPa, x1 = 0.3109 | 1.705 ± 0.002 mPa·s
312.95 K, 101.33 kPa, x1 = 0.5696 | 1.58 ± 0.002 mPa·s
312.95 K, 101.33 kPa, x1 = 0.7354 | 1.488 ± 0.002 mPa·s
313.15 K, 100 kPa, x1 = 0.2014 | 1.618 ± 0.034 mPa·s
313.15 K, 101 kPa, x1 = 0.0738 | 1.132 ± 0.012 mPa·s
313.15 K, 101 kPa, x1 = 0.1 | 1.333 ± 0.012 mPa·s
313.15 K, 101 kPa, x1 = 0.2 | 1.636 ± 0.014 mPa·s
313.15 K, 101 kPa, x1 = 0.3 | 1.705 ± 0.015 mPa·s
313.15 K, 101 kPa, x1 = 0.3067 | 1.706 ± 0.017 mPa·s
313.15 K, 101 kPa, x1 = 0.5764 | 1.48 ± 0.015 mPa·s
313.15 K, 101 kPa, x1 = 0.6 | 1.566 ± 0.013 mPa·s
313.15 K, 101 kPa, x1 = 0.6817 | 1.512 ± 0.015 mPa·s
313.15 K, 101 kPa, x1 = 0.7 | 1.504 ± 0.012 mPa·s
313.15 K, 101 kPa, x1 = 0.8 | 1.437 ± 0.01 mPa·s and 1.457 ± 0.012 mPa·s
313.15 K, 101 kPa, x1 = 0.819 | 1.447 ± 0.014 mPa·s
313.15 K, 101 kPa, x1 = 0.9 | 1.405 ± 0.01 mPa·s and 1.42 ± 0.011 mPa·s
313.15 K, 101.3 kPa, x1 = 0.0908 | 1.29 ± 0.17 mPa·s
313.15 K, 101.3 kPa, x1 = 0.2306 | 1.66 ± 0.2 mPa·s
313.15 K, 101.3 kPa, x1 = 0.7296 | 1.49 ± 0.12 mPa·s
313.15 K, 101.33 kPa, x1 = 0.0322 | 0.926 ± 0.0093 mPa·s
313.15 K, 101.33 kPa, x1 = 0.03223 | 0.902 ± 0.009 mPa·s
313.15 K, 101.33 kPa, x1 = 0.06972 | 1.159 ± 0.012 mPa·s
313.15 K, 101.33 kPa, x1 = 0.1139 | 1.384 ± 0.014 mPa·s
313.15 K, 101.33 kPa, x1 = 0.114 | 1.423 ± 0.014 mPa·s
313.15 K, 101.33 kPa, x1 = 0.1666 | 1.545 ± 0.016 mPa·s
313.15 K, 101.33 kPa, x1 = 0.2306 | 1.655 ± 0.017 mPa·s
313.15 K, 101.33 kPa, x1 = 0.231 | 1.718 ± 0.017 mPa·s
313.15 K, 101.33 kPa, x1 = 0.412 | 1.739 ± 0.017 mPa·s
313.15 K, 101.33 kPa, x1 = 0.5453 | 1.574 ± 0.016 mPa·s
313.15 K, 101.33 kPa, x1 = 0.7296 | 1.467 ± 0.015 mPa·s
313.15 K, 101.33 kPa, x1 = 0.8507 | 1.414 ± 0.014 mPa·s
317.92 K, 101.33 kPa, x1 = 0.0555 | 0.953 ± 0.002 mPa·s
317.92 K, 101.33 kPa, x1 = 0.1134 | 1.224 ± 0.002 mPa·s
317.92 K, 101.33 kPa, x1 = 0.1383 | 1.229 ± 0.002 mPa·s
317.92 K, 101.33 kPa, x1 = 0.1644 | 1.367 ± 0.002 mPa·s
317.92 K, 101.33 kPa, x1 = 0.1938 | 1.416 ± 0.002 mPa·s
317.92 K, 101.33 kPa, x1 = 0.2288 | 1.456 ± 0.002 mPa·s
317.92 K, 101.33 kPa, x1 = 0.3109 | 1.488 ± 0.002 mPa·s
317.92 K, 101.33 kPa, x1 = 0.4189 | 1.467 ± 0.002 mPa·s
317.92 K, 101.33 kPa, x1 = 0.5696 | 1.393 ± 0.002 mPa·s
317.92 K, 101.33 kPa, x1 = 0.7354 | 1.317 ± 0.002 mPa·s
318.15 K, 100 kPa, x1 = 0.025 | 0.738 ± 0.047 mPa·s
318.15 K, 100 kPa, x1 = 0.0917 | 1.101 ± 0.071 mPa·s
318.15 K, 100 kPa, x1 = 0.191 | 1.403 ± 0.089 mPa·s
318.15 K, 101 kPa, x1 = 0.0738 | 0.9864 ± 0.011 mPa·s
318.15 K, 101 kPa, x1 = 0.1 | 1.169 ± 0.011 mPa·s
318.15 K, 101 kPa, x1 = 0.1925 | 1.417 ± 0.015 mPa·s
318.15 K, 101 kPa, x1 = 0.2 | 1.431 ± 0.013 mPa·s
318.15 K, 101 kPa, x1 = 0.3 | 1.492 ± 0.013 mPa·s
318.15 K, 101 kPa, x1 = 0.3067 | 1.492 ± 0.015 mPa·s
318.15 K, 101 kPa, x1 = 0.4 | 1.474 ± 0.013 mPa·s
318.15 K, 101 kPa, x1 = 0.4143 | 1.457 ± 0.015 mPa·s
318.15 K, 101 kPa, x1 = 0.5 | 1.429 ± 0.012 mPa·s
318.15 K, 101 kPa, x1 = 0.5764 | 1.288 ± 0.013 mPa·s
318.15 K, 101 kPa, x1 = 0.6 | 1.383 ± 0.011 mPa·s
318.15 K, 101 kPa, x1 = 0.6817 | 1.337 ± 0.013 mPa·s
318.15 K, 101 kPa, x1 = 0.7 | 1.334 ± 0.011 mPa·s
318.15 K, 101 kPa, x1 = 0.8 | 1.278 ± 0.009 mPa·s and 1.298 ± 0.01 mPa·s
318.15 K, 101 kPa, x1 = 0.819 | 1.288 ± 0.012 mPa·s
318.15 K, 101 kPa, x1 = 0.9 | 1.254 ± 0.009 mPa·s and 1.268 ± 0.01 mPa·s
322.95 K, 101.33 kPa, x1 = 0.0555 | 0.847 ± 0.002 mPa·s
322.95 K, 101.33 kPa, x1 = 0.1134 | 1.082 ± 0.002 mPa·s
322.95 K, 101.33 kPa, x1 = 0.1644 | 1.203 ± 0.002 mPa·s
322.95 K, 101.33 kPa, x1 = 0.1938 | 1.248 ± 0.002 mPa·s
322.95 K, 101.33 kPa, x1 = 0.2288 | 1.282 ± 0.002 mPa·s
322.95 K, 101.33 kPa, x1 = 0.3109 | 1.311 ± 0.002 mPa·s
322.95 K, 101.33 kPa, x1 = 0.5696 | 1.236 ± 0.002 mPa·s
323.15 K, 100 kPa, x1 = 0.15 | 1.187 ± 0.05 mPa·s
323.15 K, 100 kPa, x1 = 0.25 | 1.321 ± 0.055 mPa·s and 1.323 ± 0.054 mPa·s
323.15 K, 100 kPa, x1 = 0.3 | 1.317 ± 0.054 mPa·s
323.15 K, 100 kPa, x1 = 0.4 | 1.315 ± 0.054 mPa·s
323.15 K, 100 kPa, x1 = 0.5 | 1.266 ± 0.052 mPa·s
323.15 K, 101 kPa, x1 = 0.0738 | 0.8639 ± 0.01 mPa·s
323.15 K, 101 kPa, x1 = 0.1 | 1.034 ± 0.0098 mPa·s
323.15 K, 101 kPa, x1 = 0.1925 | 1.24 ± 0.016 mPa·s
323.15 K, 101 kPa, x1 = 0.3 | 1.315 ± 0.012 mPa·s
323.15 K, 101 kPa, x1 = 0.4143 | 1.275 ± 0.014 mPa·s
323.15 K, 101 kPa, x1 = 0.5 | 1.268 ± 0.011 mPa·s
323.15 K, 101 kPa, x1 = 0.6 | 1.23 ± 0.01 mPa·s
323.15 K, 101 kPa, x1 = 0.7 | 1.19 ± 0.0099 mPa·s
323.15 K, 101 kPa, x1 = 0.8 | 1.142 ± 0.008 mPa·s and 1.161 ± 0.0095 mPa·s
323.15 K, 101 kPa, x1 = 0.819 | 1.144 ± 0.011 mPa·s
323.15 K, 101 kPa, x1 = 0.9 | 1.138 ± 0.0092 mPa·s
323.15 K, 101.33 kPa, x1 = 0.0322 | 0.767 ± 0.0077 mPa·s
323.15 K, 101.33 kPa, x1 = 0.03223 | 0.726 ± 0.008 mPa·s
323.15 K, 101.33 kPa, x1 = 0.06972 | 0.907 ± 0.01 mPa·s
323.15 K, 101.33 kPa, x1 = 0.1139 | 1.072 ± 0.012 mPa·s
323.15 K, 101.33 kPa, x1 = 0.1666 | 1.191 ± 0.013 mPa·s
323.15 K, 101.33 kPa, x1 = 0.2306 | 1.274 ± 0.014 mPa·s
323.15 K, 101.33 kPa, x1 = 0.231 | 1.335 ± 0.013 mPa·s
323.15 K, 101.33 kPa, x1 = 0.4116 | 1.276 ± 0.014 mPa·s
323.15 K, 101.33 kPa, x1 = 0.412 | 1.351 ± 0.014 mPa·s
323.15 K, 101.33 kPa, x1 = 0.5453 | 1.233 ± 0.013 mPa·s
323.15 K, 101.33 kPa, x1 = 0.7296 | 1.165 ± 0.012 mPa·s
